Screen size: about 52,000 compounds; about 1,700 (3.3%) were called active. No stated cut-off is given here; in the data, active means survival mostly below about 52% (no sharp cut-off); inactive means mostly above about 56%. This is one part of the list.

This assay deals with Wild type. The assay can be described thus: growth inhibition of S. aureus wild type versus tarO mutant, primary screen, teichoic acid synthesis inhibitors, RN4220, OD600 (AID 463173). To be noted: S. aureus RN4220 wild type/DeltatarO growth, OD600, 18 h, active compounds read low, screened at 18.75 µg/mL (by protocol).
Consider `CCC(=O)C1=C(c2ccc(Cl)cc2)N(C(=O)CC)n2c(C)nnc2S1`, for which the survival was inactive: 120%.

`CCS(=O)(=O)c1ccc(O)c(Nc2cc(C)nc(SC)n2)c1`: the survival is inactive: 102%.

Turning to `Cc1ccc(S(=O)(=O)C(CNC(=O)c2ccc(F)c(F)c2)c2ccco2)cc1` (configuration not stated), the survival was active: -6%.

Consider `CCC(C)Cn1c(/C=C/c2ccccc2)nc2ccccc21` (configuration not stated), for which the survival is active: 1%.

For `CCCCn1c(=O)c2oc3ccccc3c2n(Cc2cccc(F)c2)c1=O`, the survival is inactive: 82%.

For `Nc1cc(N)nc(SCC(=O)N2CCCCC2)n1`, the survival is inactive: 88%.

As to `Cc1cc(C)cc(NC(=O)c2ccc3c(c2)nnn3C2CCCC2)c1`, the survival was inactive: 121%.

In the case of `Cc1ccc(CNC(=O)CCN2C(=O)COc3ccc(C)cc32)cc1`, the survival was inactive: 82%.

`CCc1nnc2c(Nc3cccc(F)c3)nc3ccc(C(=O)c4ccccc4)cc3n12`: the survival is inactive: 79%.

`CCOC(=O)c1cccc(NC(=O)c2cc3c(=O)n(C)c4ccccc4c3n2C)c1`: the survival is inactive: 69%.

On to `CCC(=O)c1cc2c(cc1NC(=O)c1cccc(Cl)c1)OCCO2`, for which the survival is inactive: 113%.

As to `CCN(CC)CCOC(=O)c1ccc(NC(=O)c2nn(C)c3c2COc2ccccc2-3)cc1`, the survival is inactive: 77%.

Consider `O=C(c1cc(-c2cccc(Cl)c2)on1)N1CCN(c2ccccc2)CC1`, for which the survival was active: 4%.

Take `CC(C)c1cnc2c(c1SCC(=O)Nc1ccc(OC(F)(F)F)cc1)c(=O)n(C)c(=O)n2C`: the survival is inactive: 74%.

For `O=C(CCCN1C(=O)c2cccnc2Oc2ccc(Cl)cc21)NCc1ccccc1F`, the survival was inactive: 70%.

In the case of `CC1CCN(S(=O)(=O)c2nnc(NC(=O)c3ccc(C(C)C)cc3)s2)CC1`, the survival is inactive: 79%.

`Cc1ccc(NC2=C(CC(=O)O)C(c3ccc(F)cc3)N(c3ccc(C)cc3)C2=O)cc1` (configuration not stated): the survival was inactive: 74%.

With `COc1ccc(NC(=O)c2c(NCc3ccc(N(C)C)cc3)sc3c2CCC3)cc1`, the survival was inactive: 71%.

With `CCc1ccc(N2CCn3c2nc2c3c(=O)n(C/C=C/c3ccccc3)c(=O)n2C)cc1`, the survival is inactive: 79%.

As to `Cc1ccc(CNC(=O)CC(C)CC2=NS(=O)(=O)c3ccccc3N2)cc1` (configuration not stated), the survival is inactive: 72%.

Turning to `CCOc1ccccc1NC(=O)N(Cc1ccc(F)cc1)C1CCN(CC)CC1`, the survival is inactive: 47%.

In the case of `O=C(CC1CCCCC1)NCc1ccco1`, the survival was inactive: 106%.

On to `Cc1ccsc1CN(C(=O)c1oc2ccc(F)cc2c1C)C1CCS(=O)(=O)C1` (configuration not stated), for which the survival was inactive: 82%.

Regarding `CCOc1ccc(-c2nonc2NC(=O)c2oc3cc(C)c(C)cc3c2C)cc1OCC`, the survival was inactive: 91%.

With `Cc1ccc(NC(=O)C2CCCN2S(=O)(=O)c2cccc3nsnc23)c(C)c1` (configuration not stated), the survival is inactive: 90%.

`CCC(C)c1ccc(NC(=O)C2CCCN(c3ncccn3)C2)cc1` (configuration not stated): the survival was inactive: 108%.

As for `Cc1ccc(Nc2ncc(C(=O)N3CCN(c4ccc(F)cc4)CC3)c3ccccc23)cc1Cl`, the survival was inactive: 105%.

For the compound `CCc1ccc(NC(=O)c2ccc(F)c(S(=O)(=O)N3CCC4(CC3)OCCO4)c2)cc1`, the survival was inactive: 82%.

As to `COc1cccc(CNS(=O)(=O)c2cc3[nH]c(=O)c(=O)[nH]c3cc2C)c1`, the survival was inactive: 60%.

Consider `Cc1ccc(C)c(-n2c3nc(=O)[nH]c(=O)c-3cc3c(C)nn(-c4ccccc4)c32)c1`, for which the survival is inactive: 89%.

Turning to `COc1ccc2o/c(=N\O)c(C(N)=O)cc2c1`, the survival was inactive: 97%.

In the case of `CCOC(=O)c1ccc(N2C(=O)c3n[nH]c(C)c3C2c2ccccc2OC)cc1` (configuration not stated), the survival is inactive: 79%.

Take `N#Cc1ccc(C(=O)NCc2ccc3c(c2)CCN3C(=O)c2ccc(F)cc2)cc1`: the survival is inactive: 59%.

For `Cc1ccccc1Cn1c2ccccc2c2cnn(CC(=O)NC(C)CCc3ccccc3)c(=O)c21` (configuration not stated), the survival was inactive: 77%.

Consider `CCc1ccc2oc(C(=O)Nc3c(C)n(C)n(-c4ccccc4)c3=O)cc(=O)c2c1`, for which the survival was inactive: 105%.

Consider `COC(=O)c1ccc(NC(=O)CN(CCc2ccccc2)S(=O)(=O)c2ccc(OC)cc2)cc1`, for which the survival was inactive: 68%.

On to `Cc1cccc(CCNc2ncnc3onc(-c4ccc(Cl)cc4)c23)c1`, for which the survival is inactive: 27%.

Regarding `Cc1[nH]c2ccc(-c3nnc(SCC(=O)N4CCCC4)o3)cc2c1C`, the survival is inactive: 101%.

Consider `Cc1cccc(Cn2nc(C)n3c(cc4cc(C)ccc43)c2=O)c1`, for which the survival was inactive: 79%.

Turning to `CCOc1ccc(C(=O)NCCc2sc(-c3ccc(OC)c(OC)c3)nc2C)cc1`, the survival is inactive: 129%.

As for `Cc1ccccc1OCC(=O)Nc1sc2c(c1C(=O)OC(C)C)CCCC2`, the survival is inactive: 69%.

On to `Cc1ccc(C)c(N2CCN(C(=O)c3cc(C)nc4c3c(C)nn4-c3cccc(F)c3)CC2)c1`, for which the survival is active: 0%.

For `Cc1ccc(C)c(N2CCN(c3ccc4cc(S(=O)(=O)N5CCC(C)CC5)ccc4n3)CC2)c1`, the survival is inactive: 100%.

On to `CCOc1ccc(-n2c(SCC(=O)N3CCC(C)CC3)nc3c([nH]c4ccccc43)c2=O)cc1`, for which the survival is inactive: 68%.

In the case of `CN1C=CC=C/C1=C1\SC(=S)N(C2CCCCC2)C1=O`, the survival was inactive: 120%.

In the case of `CCn1c(C(=O)NCc2ccc(OC(C)C)cc2)cc2oc3ccccc3c21`, the survival is inactive: 20%.

On to `CC1CCC(C(C)C)C(OC(=O)Cn2nnc3c(cnn3-c3ccccc3)c2=O)C1` (configuration not stated), for which the survival is inactive: 114%.

With `Cc1ccc2c(c1)c(=O)c1ccccc1n2CCCC(=O)Nc1cc(Cl)ccc1C`, the survival is inactive: 123%.

Consider `Cc1oc2ccc(O)c(CN3CCN(C)CC3)c2c1C(=O)Nc1cccc(Cl)c1C`, for which the survival was inactive: 82%.

In the case of `Cc1cccc(N2C(=O)C(CC(=O)Nc3ccc(Cl)cc3)N(Cc3ccco3)C2=O)c1` (configuration not stated), the survival was inactive: 78%.

Take `CCCOc1ccc(C(=O)Nc2cc3c(cc2N2CCOCC2)n(C)c(=O)n3C)cc1`: the survival was inactive: 142%.

As for `Cc1cccc(-n2c(=O)c3c(c4cc(C)ccc4n3C)n(CC(=O)NCC3CCCO3)c2=O)c1` (configuration not stated), the survival was inactive: 86%.

Regarding `Cc1oc(-c2cccc(Cl)c2)nc1CS(=O)(=O)CC(=O)NCc1ccccc1Cl`, the survival is inactive: 75%.

Consider `Cc1nn(CC(=O)O)c(=O)c2cc3cc(F)ccc3n12`, for which the survival was inactive: 122%.

Turning to `O=C(Nc1cc(Cl)cc(Cl)c1)c1ccc2c(c1)N(Cc1cccc(Cl)c1)C(=O)c1ccccc1S2=O` (configuration not stated), the survival is inactive: 88%.

In the case of `COC(=O)c1ccc(C2c3c(oc4ccccc4c3=O)C(=O)N2c2nc(C)c(C(=O)OC)s2)cc1` (configuration not stated), the survival was inactive: 67%.

Turning to `COc1ccccc1NC(=O)c1cc(S(=O)(=O)N2CCN(c3ccccc3Cl)CC2)ccc1F`, the survival was inactive: 66%.

Take `COc1ccc2c(CNCc3cccs3)c(C(=O)O)n(Cc3ccc(C)cc3)c2c1`: the survival is inactive: 85%.

In the case of `COc1ccc(NC(=O)Cn2c(=O)n(Cc3nc(-c4ccccc4)no3)c(=O)c3cc4c(cc32)OCO4)c(OC)c1`, the survival is inactive: 78%.

Consider `O=C(Nc1ccc2oc(-c3cccnc3)nc2c1)c1ccc(Br)cc1`, for which the survival was inactive: 76%.

In the case of `Cc1nn(CC(=O)NCc2ccc(Cl)cc2)c(=O)c2cc3sccc3n12`, the survival is inactive: 127%.

For `COC(=O)c1scc(-c2ccc(C)cc2)c1S(=O)(=O)Nc1ccc(F)cc1F`, the survival is inactive: 72%.

For `Cc1ccc(CN2CCCn3nc(C(=O)NC(C)C)cc3C2=O)cc1`, the survival was active: -2%.

Consider `Cc1ccc(N2CCN(S(=O)(=O)c3cc(C(=O)Nc4cc(Cl)cc(Cl)c4)ccc3F)CC2C)cc1` (configuration not stated), for which the survival is inactive: 71%.

For `CC(=O)c1ccc(NC(=O)C2Cc3ccccc3N2C(=O)c2ccccc2)cc1` (configuration not stated), the survival was inactive: 153%.

Consider `CC(=O)Nc1nonc1-c1nnc(SCC(=O)Nc2cccc(F)c2)n1-c1ccccc1`, for which the survival was inactive: 27%.

As for `Cc1ccc(-n2c(SCC(N)=O)nc(O)c(C)c2=O)cc1`, the survival was inactive: 113%.

Take `COc1ccc(C)cc1NC(=O)Cn1c(=O)c(C(F)(F)F)nc2ccccc21`: the survival is inactive: 87%.

As for `CN(C)S(=O)(=O)c1ccc2c(c1)N(CC(=O)NCc1ccc(F)cc1)C(=O)CS2`, the survival was inactive: 146%.

On to `COc1ccccc1N1CCN(c2ccc(=O)n(CC(=O)NCc3ccc(OC(C)C)cc3)n2)CC1`, for which the survival was inactive: 89%.

`Cc1ccc(NC(=O)Cn2cc3c(n2)CCCC3)c(Cl)c1`: the survival was inactive: 93%.

As to `COc1ccc(Oc2c(C(F)(F)F)oc3c(CN4CCCC(C)C4)c(O)ccc3c2=O)cc1` (configuration not stated), the survival was inactive: 67%.

On to `Cc1nn(C)c2c1c(C(F)(F)F)cc(=O)n2CC(=O)NCCC(C)C`, for which the survival was inactive: 74%.

Regarding `Cc1cccc(-c2nc3scc(CCNS(=O)(=O)c4ccc(Oc5ccccc5)cc4)n3n2)c1`, the survival is inactive: 63%.

With `CC1=C(c2ccc(C)cc2)S(=O)(=O)NC1=NCCCN1CCN(c2ccccc2F)CC1`, the survival is inactive: 59%.

`COc1ccc(-n2nc(C(=O)N3CCN(c4ccc(F)cc4)CC3)c3c4ccccc4n(C)c3c2=O)cc1`: the survival was inactive: 79%.

On to `COc1ccc(-c2cc3ccc(O)c(CN4CCC(C)CC4)c3oc2=O)cc1`, for which the survival is inactive: 70%.

`O=C(Nc1ccc2oc(-c3cccnc3)nc2c1)c1ccc(-c2ccccc2OC(F)(F)F)o1`: the survival is inactive: 83%.

Take `COc1ccc(-n2nc(C(=O)Nc3cc(OC)c(OC)c(OC)c3)c(=O)n(C)c2=O)cc1`: the survival was inactive: 152%.

As for `O=C1C=CC(=O)N1c1ccc(-c2cnc(-c3ccc(N4C(=O)C=CC4=O)cc3)nc2)cc1`, the survival was inactive: 92%.

Turning to `O=C(O)c1ccc(Nc2nc3ccccc3n3cnnc23)cc1`, the survival was inactive: 84%.

In the case of `CCC1CCc2nc3sc(C(=O)Nc4ccc(C)cc4)c(N)c3cc2C1` (configuration not stated), the survival is inactive: 84%.

For `COc1ccc(OC)c2sc(N3CCN(C(=O)c4ccc5c(c4)CCCC5)CC3)nc12`, the survival was inactive: 72%.

On to `COc1ccccc1C(=O)NCCn1cc(SCc2ccc(C)cc2)c2ccccc21`, for which the survival was active: 3%.

Turning to `CCCCCn1c(=O)[nH]c2cc(C(=O)NCc3ccc(Cl)cc3)ccc2c1=O`, the survival was inactive: 83%.

Turning to `COc1ccc(C2CC(=O)N(Cc3ccc(F)cc3)c3ccccc3S2)cc1OC` (configuration not stated), the survival was inactive: 88%.

As for `O=C(CN1CCN(Cc2cccc(Cl)c2)C1=O)NCc1ccc(F)cc1`, the survival was inactive: 63%.

These data come from PubChem BioAssay AID463173 (ICCB-Longwood Screening Facility, Harvard Medical School, 2010).
